# About 2,200 (0.71%) of roughly 310,000 compounds showed an effect of 50% or more. The effect is printed as a negative number. The list shows a part of the results. Where a SMILES comes first, the peptide text is derived from it. The star is where a group is joined. Boc = CC(C)(C)OC(=O)*
# Target: human ether-à-go-go-related gene (hERG) potassium channel (human, UniProt Q12809)
# Experiment: primary screen, population patch clamp on CHO cells stably expressing hERG
# human ether-à-go-go-related gene (hERG) potassium channel, sequence (Q12809 whole entry, looked up): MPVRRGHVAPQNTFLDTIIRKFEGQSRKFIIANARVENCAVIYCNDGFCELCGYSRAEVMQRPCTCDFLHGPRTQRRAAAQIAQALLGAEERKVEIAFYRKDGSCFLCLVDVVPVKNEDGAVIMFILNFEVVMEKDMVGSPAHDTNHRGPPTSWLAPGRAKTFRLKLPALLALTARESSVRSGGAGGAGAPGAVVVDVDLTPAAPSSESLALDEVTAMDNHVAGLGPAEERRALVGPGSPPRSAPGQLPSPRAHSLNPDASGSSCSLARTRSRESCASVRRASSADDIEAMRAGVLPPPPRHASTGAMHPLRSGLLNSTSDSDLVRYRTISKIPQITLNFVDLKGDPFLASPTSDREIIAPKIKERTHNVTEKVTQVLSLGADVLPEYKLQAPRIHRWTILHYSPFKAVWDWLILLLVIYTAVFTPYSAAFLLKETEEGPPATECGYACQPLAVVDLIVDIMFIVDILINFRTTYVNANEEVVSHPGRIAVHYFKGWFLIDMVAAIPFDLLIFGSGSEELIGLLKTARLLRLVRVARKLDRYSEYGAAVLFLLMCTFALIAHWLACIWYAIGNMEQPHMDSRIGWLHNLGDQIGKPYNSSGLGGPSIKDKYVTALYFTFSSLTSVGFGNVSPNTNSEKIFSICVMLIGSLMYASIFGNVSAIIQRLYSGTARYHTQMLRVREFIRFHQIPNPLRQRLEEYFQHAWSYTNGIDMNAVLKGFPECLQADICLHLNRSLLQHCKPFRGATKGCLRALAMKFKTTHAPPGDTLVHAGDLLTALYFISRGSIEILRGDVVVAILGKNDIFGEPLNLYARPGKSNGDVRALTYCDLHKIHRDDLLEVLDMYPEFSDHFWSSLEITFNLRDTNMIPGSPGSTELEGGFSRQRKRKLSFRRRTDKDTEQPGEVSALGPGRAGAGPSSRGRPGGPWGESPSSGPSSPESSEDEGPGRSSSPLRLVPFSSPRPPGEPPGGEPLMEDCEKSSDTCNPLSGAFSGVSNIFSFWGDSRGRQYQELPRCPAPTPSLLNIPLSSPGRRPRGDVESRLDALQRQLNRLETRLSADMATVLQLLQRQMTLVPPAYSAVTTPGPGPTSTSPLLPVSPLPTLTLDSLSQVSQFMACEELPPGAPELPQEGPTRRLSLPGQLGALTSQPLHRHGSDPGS
row,Compound,"hERG current change (%, negative = inhibition) at 1uM [%]"
1,O=C(Nc1ccc(N2CCCC2)cc1)c1ccc2ccccc2c1,-2.3
2,O=C(c1ccc([N+](=O)[O-])cc1)N1CCN(C(=O)c2cccs2)CC1,-31
3,COc1cccc(OC(=O)c2cc3ccccc3oc2=O)c1,3.86
4,CCC1CCCCN1S(=O)(=O)c1ccc(NC(=O)CSc2ncccc2C(=O)O)cc1 (stereo not shown),2.19
5,CCCSc1nnc(NC(=O)Nc2ccc(F)cc2)s1,10.2
6,O=[N+]([O-])c1ccc(N2CCCCC2)c2ncccc12,-0.566
7,Cc1[nH]c2ccccc2c1NC(=O)CN1CCN(C(=O)c2ccco2)CC1,14.1
8,CCOC(=O)C1=NNC(C(=O)c2ccccc2)C1c1ccc(OC)cc1 (stereo not shown),15.6
9,O=C(Cn1nnc2ccccc2c1=O)Nc1cc(C(F)(F)F)ccc1N1CCOCC1,6.52
10,C/C(CC(=O)Nc1ccc(Cl)c(C(F)(F)F)c1)=N\NC(=O)c1cccc(O)c1,-7.3
11,COCCOC(=O)C1=C(C)NC(=O)NC1C1CC=CCC1 (stereo not shown),7.82
12,Cn1c(=O)c2c(-c3ccccc3)n(N3CCOCC3)cc2n(C)c1=O,-19.1
13,NC(=O)c1nsc(C(=O)N(Cc2ccco2)C(C(=O)NCc2ccccc2)c2ccc(O)cc2)c1N (stereo not shown),4.4
14,CCCCOc1ccc(NC(=O)CN2CCN(C(=O)OCC)CC2)cc1.Cl,-8.98
15,Cn1c(NCc2cccc(Br)c2)nc2ccccc21,-1.85
16,O=C(NC1CCCC1)C1CC(=O)N(c2ccc(F)cc2)C1 (stereo not shown),17.3
17,CC(=O)NC(CC(=O)NC1CCCCC1)c1ccccc1 (stereo not shown),2.36
18,COCCCNC(=O)c1ccccc1NS(C)(=O)=O,12.4
19,Cl.OC1(c2ccccc2)CCN(Cc2ccccc2)C2CCCCC21 (stereo not shown),0.966
20,Cc1csc(NC(=O)c2ccc(C)c(S(=O)(=O)N3CCCCC3)c2)n1,3.65
21,Cc1cc(NNC(=O)c2ccccc2)nc(NNC(=O)c2ccccc2)n1,1.23
22,CCN(CC)CCCNC(=S)N(Cc1ccco1)Cc1cc2cc3c(cc2[nH]c1=O)OCCO3,15.4

row,Compound,"hERG current change (%, negative = inhibition) at 1uM [%]"
1,COc1ccc(C2=NNC(=Nc3cc(S(=O)(=O)N(C)C)ccc3C)SC2)c(OC)c1,10.4
2,O=C(CSc1nc2ccccc2[nH]1)Nc1ccc(F)cc1,6.9
3,Cc1nonc1C(=O)N/N=C/c1cccc(O)c1,-3.28
4,COc1cc(NC(=O)c2c(Cl)cnn2C)c(OC)cc1Cl,9.91
5,COC(=O)C1=C(c2c(C)noc2C)C[C@@H]2CC[C@H]1N2C(=O)NCc1ccco1,15.6
6,Cc1cccc(C(=O)OC(C)C(=O)NCC2CCCCC2)c1O (stereo not shown),9.4
7,CC(C)C(=O)Nc1cc(C(F)(F)F)ccc1-n1ccnc1,7.39
8,Cc1[nH]c(-c2ccc(F)cc2)cc1C(=O)N1CCN(c2cccc(Cl)c2)CC1,8.23
9,O=C1NN(c2ccccc2)C(=O)/C1=C/c1coc2ccccc2c1=O,12.9
10,Cc1ccc(-c2nc3cnccn3c2Nc2ccc3c(c2)OCO3)cc1,12.3
11,COc1ccc(-c2nnn(CC(=O)NC(=O)NC3CCCCC3)n2)cc1OC,8.99
12,CCCC(=O)N1CCN(c2ccc(NC(=S)NC(=O)CC)cc2)CC1,2.6
13,CC(NC(=O)OC(C)(C)C)C(=O)N1CCCC1C(=O)NC(Cc1ccccc1)C(N)=O (stereo not drawn) (Boc-Ala-Pro-Phe-NH2; configuration not given here),-8.3
14,Cc1ccccc1NC(=O)Cc1nnc(N)s1,9.3
15,Cc1cccc(C)c1NC1=NCCCS1,-9.2
16,O=[N+]([O-])c1ccc(OCc2cccc(COc3ccc([N+](=O)[O-])cc3)n2)cc1,14.2
17,COc1ccc(CCNC(=O)c2cc(=O)c3cc(C)ccc3o2)cc1,6.92
18,Nc1nc2nc(-c3ccc(OCc4ccccc4)cc3)cc(C(F)(F)F)n2n1,6.03
19,O=C(c1ccc(S(=O)(=O)N2CCOCC2)cc1)N1CCN(c2ccc(F)cc2)CC1,5.28
20,COCc1cc(C)nc(SCC(=O)c2ccc(O)c(O)c2)c1C#N,8.22
21,Cc1nc2ccc(NC(=O)N3CCOCC3)cc2nc1C,18.3
22,Cc1ccc(NC(=O)COc2ccc(C(=O)c3ccccc3)cc2)c(O)c1,4.33

row,Compound,"hERG current change (%, negative = inhibition) at 1uM [%]"
1,Clc1ccc(NC2=NCCCCC2)cc1,5.53
2,CCOC(=O)c1cc(-c2ccc(C)cc2)n(CCC(=O)NCCCOC)c1C,5.73
3,Cc1ccc(CNC(=O)CSc2nnc3c(n2)[nH]c2ccccc23)cc1,14
4,COC(=O)c1ccccc1NC(=O)CSc1nc(N)cc(=O)[nH]1,9.66
5,CCOC(=O)CNC(=O)Cn1cnc2c(nnn2-c2ccc(C)cc2)c1=O,12.9
6,Cc1ccc(S(=O)(=O)c2c[nH]c3ccc(Cl)cc3c2=O)cc1,10.5
7,O=C(Nc1ccc2ccccc2c1)[C@@H]1C[C@H]1[C@@H](NP(=O)(c1ccccc1)c1ccccc1)c1ccccc1,18.7
8,COc1cc(C(=O)Nc2cc(C)nn2-c2ccccc2)cc(OC)c1OC,13.8
9,O=C(NCCN1C(=O)S/C(=C\c2cccnc2)C1=O)C1=NN(c2ccccc2)C(=O)CC1,13.6
10,Cc1ccnc(NC(=O)c2ccc3c(c2)NC(=O)C(C)S3)c1 (stereo not shown),8.35
11,CCCc1nc2ccccc2n1CCc1ccccc1,2.22
12,C/C(Cn1nnc2ccccc21)=N\OC(=O)c1ccccc1C,-23.1
13,O=C(CSc1cccc2cccnc12)Nc1ccccc1F,3.23
14,CSCCC(C(=O)O)N1C(=O)c2ccc(C(=O)O)cc2C1=O (stereo not shown),8.2
15,Cc1ccc(OCC(=O)n2cnnc2N)c(C)c1,13
16,CCN(CC(=O)Nc1c(F)cccc1F)C(=O)c1ccc(C2SCCS2)cc1,13.2
17,CC1(C)CC(=O)C2=C(C1)NC(SCC(=O)Nc1ccccc1)=C(C#N)C21CCCCC1,-0.842
18,O=C(Nc1ccc2c(c1)OCCO2)C1CC(O)CN1C(=O)Nc1ccccc1 (stereo not shown),11.3
19,CC(C)CCN(C)c1ccc(/C=N/n2cnnc2)cc1,3.22
20,CCOc1ccccc1NC(=O)C(=O)CC(=O)c1ccc(OC)cc1,6.43
21,COc1ccc(-c2cc(C(F)(F)F)c3c(N)c(C(=O)NCCSC)sc3n2)cc1,4.51
22,Cc1ccc(N(C(C)C(=O)Nc2cc(Cl)ccc2Oc2ccccc2)S(C)(=O)=O)cc1 (stereo not shown),14.5

row,Compound,"hERG current change (%, negative = inhibition) at 1uM [%]"
1,Cc1ccc(C(=O)NC(=S)NCCN2CCOCC2)cc1,19.3
2,Cn1c(=O)c2c(nc(CN3CCCCC3)n2Cc2c(F)cccc2Cl)n(C)c1=O,12.8
3,CCCCNC(=O)C1CCN(S(=O)(=O)c2c(C)noc2/C=C\c2ccc(OC)cc2)CC1,7.41
4,CC1CCN(c2nc3ccccc3nc2N2CCC(C)CC2)CC1,8.24
5,COC(=O)c1c(NC(=O)/C=C/C(=O)O)sc(Cc2ccccc2)c1C,-0.673
6,Cc1cccc[n+]1CC(=O)Nc1ccccc1.[Cl-],4.07
7,CCOC(=O)c1c(NC(=O)c2c(C(=O)O)cccc2[N+](=O)[O-])sc(C)c1C,19.4
8,COc1cc(-c2n[nH]c(=O)o2)cc(OC)c1OC,-1.3
9,O=C(Nc1ccccc1F)c1ccc(COc2ccc(Cl)cc2Cl)o1,10.2
10,N#CCSc1nnc(-c2ccc(F)cc2)n1N,11.3
11,COc1cc(NS(=O)(=O)c2c(C)[nH]c(C)c2C(=O)N2CCCC2)cc(OC)c1OC,5.12
12,COC(=O)c1ccc(CNC(=O)CNC(=O)c2sc3ccccc3c2Cl)cc1,4.38
13,CC(=O)Nc1nc2cc([N+](=O)[O-])ccc2s1,9.96
14,CN(C)/C=N/c1cc(=O)[nH]c(=O)n1CC1CC1,17.1
15,COCCN1Cc2cccc(C(=O)NCCc3ccccc3)c2C1=O,14.3
16,CCCC1=NN(C(=O)Cc2ccc(OC)cc2)C(O)(C(F)(F)F)C1 (stereo not shown),1.22
17,COC(=O)c1c(NC(=O)CSc2nc3ccccc3c(=O)n2-c2ccccc2)sc(C)c1C,5.22
18,COc1ccc(N2C(=O)C3CCCN3C2c2ccccc2OC)cc1 (stereo not shown),21
19,Cc1cc2c(cc1S(=O)(=O)NCCc1ccccc1)NC(=O)CO2,0.117
20,CN(C)CCN(Cc1ccccc1)c1nccc(N(C)C)c1C#N.O.O=C(O)C(=O)O,-0.633
21,COc1cc2cc(C(=O)N(C)C3CCS(=O)(=O)C3)[nH]c2cc1OC (stereo not shown),7.1
22,CCCCn1c(N)c(N(CC(C)C)C(=O)C2CCN(S(=O)(=O)c3ccc(Cl)cc3)CC2)c(=O)[nH]c1=O,14.4

# Source: article PMC4336329 (PLoS ONE, 2015)
